Assay results taken from the supplement of paper PMC3334620.
The full ranking holds about 33,000 sequences; the median of “E-score (-0.5 to 0.5)” is about -0.054, and the highest 2% start at about 0.35. Some of the results follow.

What follows are sequences tested against T1, Stb5 (UniProt P38699) (assay: PBM E-score (8-mer binding enrichment) (E-score (-0.5 to 0.5)); higher = stronger / more preferred TF binding; most listed sequences are background and not binding sites). Settings: protein concentration: 200 nM; construct: GST-full length.
T1 sequence: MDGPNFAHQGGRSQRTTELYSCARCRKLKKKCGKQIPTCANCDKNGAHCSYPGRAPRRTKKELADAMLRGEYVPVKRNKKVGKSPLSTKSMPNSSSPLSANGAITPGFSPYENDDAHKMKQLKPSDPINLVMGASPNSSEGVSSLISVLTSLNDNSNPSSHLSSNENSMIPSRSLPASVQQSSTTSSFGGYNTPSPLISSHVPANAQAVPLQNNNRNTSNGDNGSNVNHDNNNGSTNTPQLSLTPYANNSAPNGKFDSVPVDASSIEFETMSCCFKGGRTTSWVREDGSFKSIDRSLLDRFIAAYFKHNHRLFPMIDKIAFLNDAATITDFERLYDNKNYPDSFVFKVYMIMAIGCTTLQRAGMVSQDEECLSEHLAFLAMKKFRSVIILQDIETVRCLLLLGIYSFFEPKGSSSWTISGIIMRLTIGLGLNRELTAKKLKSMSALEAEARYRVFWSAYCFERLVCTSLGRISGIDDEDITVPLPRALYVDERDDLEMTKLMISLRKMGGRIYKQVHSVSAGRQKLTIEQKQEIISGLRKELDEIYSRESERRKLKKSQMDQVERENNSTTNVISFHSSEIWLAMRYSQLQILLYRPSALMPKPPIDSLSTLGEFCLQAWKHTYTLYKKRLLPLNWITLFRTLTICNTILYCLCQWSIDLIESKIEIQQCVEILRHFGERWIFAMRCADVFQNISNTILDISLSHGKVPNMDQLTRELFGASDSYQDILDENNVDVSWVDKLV
Method: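 Universal 'all 10-mer' protein binding microarrays (Agilent AMADID 015681) probed with GST-tagged S. cerevisiae TFs (full-length or DBD) made by in vitro transcription/translation (PURExpress), about 100-200 nM. Bound TF was detected with fluorescent anti-GST. Each ungapped 8-mer (which stands for itself and its reverse complement) is scored by the PBM enrichment score (E-score), a modified Wilcoxon-Mann-Whitney statistic from -0.5 to +0.5, computed with the Universal PBM Analysis Suite. Scale: above 0.35 generally sequence-specific binding.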

| Sequence | PBM E-score |
| --- | --- |
| GTTTAAAA | 0.111 |
| ATGTCACA | -0.254 |
| TGATGGAA | -0.079 |
| AGAATGCG | 0.0356 |
| AGCAGCCG | -0.128 |
| ATCTCGCA | -0.049 |
| TCAGCCAA | -0.23 |
| GCGATAAA | 0.0533 |
| CGGCGAGC | 0.0148 |
| ACTGGGAG | -0.112 |
| AGAGCCCT | -0.338 |
| TGACGGAA | 0.168 |
| AGGCACTG | -0.388 |
| CGAAGACA | 0.0655 |
| CCTGCAAG | -0.179 |
| GCAAATTA | 0.0963 |
| CCACTGGC | -0.135 |
| AACGCGCT | 0.0979 |
| AAGTTGCC | -0.0222 |
| AAGGCTCA | -0.21 |
| ATGGCCCG | 0.132 |
| ACATCATG | -0.102 |

| Sequence | PBM E-score |
| --- | --- |
| TACTCTAA | -0.0253 |
| AGGGGTCA | -0.181 |
| CATTCGTA | -0.256 |
| GCTGACAC | 0.044 |
| CAGGCGAA | -0.257 |
| AGCGGGGG | 0.277 |
| AATAGTAA | -0.155 |
| AGTTCTTC | -0.213 |
| ATCTTTTG | -0.0814 |
| ACTACACG | -0.139 |
| CGCTTCAA | 0.00623 |
| GCGCTTTA | 0.115 |
| CCTTTCGA | -0.0952 |
| CACGGCTA | 0.0563 |
| ACTAGCTA | -0.195 |
| AGGGCTAA | 0.124 |
| ACGAGAGC | -0.238 |
| TCGGACCA | 0.214 |
| CTATGACC | 0.143 |
| GCGAGATA | 0.0446 |
| AACTATCG | 0.0925 |
| GACTAGGA | -0.106 |

| Sequence | PBM E-score |
| --- | --- |
| AGTTACTA | -0.107 |
| CGATCAAG | 0.0257 |
| GAGCAACA | 0.0193 |
| CTGGCCTA | -0.172 |
| CAAGAGTC | -0.114 |
| ACATTCTG | -0.223 |
| CCCAGATC | -0.089 |
| GTTTGTAA | 0.0105 |
| ATGGAAAC | -0.0713 |
| CAGACAAA | -0.223 |
| CACTGGGG | -0.164 |
| ATACCCGG | 0.239 |
| GCATAACC | 0.0353 |
| GCGTCGTA | 0.109 |
| CCTGCAGA | 0.0696 |
| CACAATGC | -0.0146 |
| AACCGCCC | 0.107 |
| ATGAATCG | 0.0204 |
| GAAAGCAC | -0.0257 |
| AGCGGGAC | 0.303 |
| GATTACGA | -0.089 |
| GCAGTGGA | -0.276 |

| Sequence | PBM E-score |
| --- | --- |
| ACACTTAG | -0.035 |
| GATGGAGC | -0.0679 |
| GACTGCCC | -0.241 |
| AAGGCTAA | -0.149 |
| CGAGTTAG | -0.0646 |
| GACAGGGA | -0.195 |
| AAAGCGTT | -0.145 |
| CCCGTAGG | 0.133 |
| GGCACCCA | -0.036 |
| CTACACAA | -0.192 |
| ATAGCCGG | 0.373 |
| CCTCCATA | -0.00496 |
| CGCTCCCA | 0.0448 |
| CCTAACTA | 0.0195 |
| TCGGGCAA | 0.102 |
| GTTGCGAA | -0.289 |
| GTCGGTAA | 0.32 |
| AGACAGCG | 0.165 |
| CGCACGGC | 0.178 |
| ATATAAAC | 0.143 |
